# According to the supplement of paper PMC8728848:
# The list shows a part of the results.
# B1: Gal 3 (Homo sapiens), P17931 (protein)
# chain: MADNFSLHDALSGSGNPNPQGWPGAWGNQPAGAGGYPGASYPGAYPGQAPPGAYPGQAPPGAYHGAPGAYPGAPAPGVYPGPPSGPGAYPSSGQPSAPGAYPATGPYGAPAGPLIVPYNLPLPGGVVPRMLITILGTVKPNANILDFQRGNDVAFHFNPRFNENNRRVIVCNTKLDNNWGREERQSVFPFESGKPFKIQVLVEPDHFKVAVNDAHLLQYNHRVKKLNEISKLGISGDIDLTSASYTMI
# What was measured:
# Test in all cases: glycan array binding signal (z-score within array); higher = stronger binding
# Details in all cases: glycan notation: IUPAC condensed, linker removed
# [1] = target: Man(a1-2)Man(a1-6)[Man(a1-3)]Man(a1-6)[Man(a1-2)Man(a1-2)Man(a1-3)]Man(b1-4)GlcNAc(b1-4)GlcNAc
# Outline: (§1)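 Glycan array data came from 3228 arrays in the Consortium for Functional Glycomics database, and only arrays with an available protein sequence were kept. Glycan names were put into IUPAC-condensed notation, and columns mapping to the same glycan were averaged. The binding signal is a within-array Z-score, averaged across arrays of one protein sequence run at different concentrations or buffers and across linkers. A negative Z-score can be read as non-binding.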
# [2] = target: Man(a1-3)[Man(a1-6)]Man
# Outline: as §1
# [3] = target: Man(a1-3)[Man(a1-6)]Man(a1-6)[Man(a1-2)Man(a1-3)]Man(b1-4)GlcNAc(b1-4)GlcNAc
# Outline: as §1
# [4] = target: Man(a1-3)[Man(a1-6)]Man(a1-6)[Man(a1-3)]Man
# Outline: as §1
# [5] = target: Man(a1-3)[Man(a1-6)]Man(a1-6)[Man(a1-3)]Man(b1-4)GlcNAc(b1-4)GlcNAc
# Outline: as §1
# [6] = target: Man(a1-3)[Man(a1-6)]Man(b1-4)GlcNAc(b1-4)GlcNAc
# Outline: as §1
# [7] = target: Man(a1-6)Man
# Outline: as §1
# [8] = target: Man(b1-4)GlcNAc
# Outline: as §1
# [9] = target: Neu5Ac(a2-3)Gal
# Outline: as §1
# [10] = target: Neu5Ac(a2-3)Gal(b1-3)GalNAc
# Outline: as §1
# [11] = target: Neu5Ac(a2-3)Gal(b1-3)GalNAc(b1-3)Gal(a1-4)Gal(b1-4)Glc
# Outline: as §1
# [12] = target: Neu5Ac(a2-3)Gal(b1-3)GalNAc(b1-4)[Neu5Ac(a2-3)]Gal(b1-4)Glc
# Outline: as §1
# [13] = target: Neu5Ac(a2-3)Gal(b1-3)GalNAc6S
# Outline: as §1
# [14] = target: Neu5Ac(a2-3)Gal(b1-3)GlcNAc
# Outline: as §1
# [15] = target: Neu5Ac(a2-3)Gal(b1-3)GlcNAc(b1-2)Man(a1-3)[Neu5Ac(a2-3)Gal(b1-3)GlcNAc(b1-2)Man(a1-6)]Man(b1-4)GlcNAc(b1-4)GlcNAc
# Outline: as §1
# [16] = target: Neu5Ac(a2-3)Gal(b1-3)GlcNAc(b1-3)Gal(b1-3)GlcNAc
# Outline: as §1
# [17] = target: Neu5Ac(a2-3)Gal(b1-3)GlcNAc(b1-3)Gal(b1-4)GlcNAc
# Outline: as §1
# [18] = target: Neu5Ac(a2-3)Gal(b1-3)GlcNAc(b1-3)GalNAc
# Outline: as §1
# [19] = target: Neu5Ac(a2-3)Gal(b1-3)GlcNAc6S
# Outline: as §1
# [20] = target: Neu5Ac(a2-3)Gal(b1-3)[Fuc(a1-4)]GlcNAc
# Outline: as §1
# [21] = target: Neu5Ac(a2-3)Gal(b1-3)[Fuc(a1-4)]GlcNAc(b1-3)Gal(b1-3)[Fuc(a1-4)]GlcNAc
# Outline: as §1
# [22] = target: Neu5Ac(a2-3)Gal(b1-3)[Fuc(a1-4)]GlcNAc(b1-3)Gal(b1-4)[Fuc(a1-3)]GlcNAc
# Outline: as §1
# [23] = target: Neu5Ac(a2-3)Gal(b1-3)[Neu5Ac(a2-3)Gal(b1-4)]GlcNAc
# Outline: as §1
# [24] = target: Neu5Ac(a2-3)Gal(b1-3)[Neu5Ac(a2-6)]GalNAc
# Outline: as §1
# [25] = target: Neu5Ac(a2-3)Gal(b1-4)Glc
# Outline: as §1
# [26] = target: Neu5Ac(a2-3)Gal(b1-4)GlcNAc
# Outline: as §1
# [27] = target: Neu5Ac(a2-3)Gal(b1-4)GlcNAc(b1-2)Man(a1-3)[GlcNAc(b1-2)Man(b1-4)GlcNAc(b1-2)Man(a1-6)]Man(b1-4)GlcNAc(b1-4)GlcNAc
# Outline: as §1
# [28] = target: Neu5Ac(a2-3)Gal(b1-4)GlcNAc(b1-2)Man(a1-3)[Neu5Ac(a2-6)Gal(b1-4)GlcNAc(b1-2)Man(a1-6)]Man(b1-4)GlcNAc(b1-4)GlcNAc
# Outline: as §1
# [29] = target: Neu5Ac(a2-3)Gal(b1-4)GlcNAc(b1-3)Gal(b1-3)GlcNAc
# Outline: as §1
# [30] = target: Neu5Ac(a2-3)Gal(b1-4)GlcNAc(b1-3)Gal(b1-4)GlcNAc
# Outline: as §1
# [31] = target: Neu5Ac(a2-3)Gal(b1-4)GlcNAc(b1-3)Gal(b1-4)GlcNAc(b1-3)Gal(b1-4)GlcNAc
# Outline: as §1
# [32] = target: Neu5Ac(a2-3)Gal(b1-4)GlcNAc(b1-3)Gal(b1-4)[Fuc(a1-3)]GlcNAc
# Outline: as §1
# [33] = target: Neu5Ac(a2-3)Gal(b1-4)GlcNAc(b1-3)GalNAc
# Outline: as §1
# [34] = target: Neu5Ac(a2-3)Gal(b1-4)GlcNAc(b1-6)[Gal(b1-3)]GalNAc
# Outline: as §1
# [35] = target: Neu5Ac(a2-3)Gal(b1-4)GlcNAc(b1-6)[Neu5Ac(a2-3)Gal(b1-3)]GalNAc
# Outline: as §1
# [36] = target: Neu5Ac(a2-3)Gal(b1-4)GlcNAc6S
# Outline: as §1
# [37] = target: Neu5Ac(a2-3)Gal(b1-4)[Fuc(a1-3)]GlcNAc
# Outline: as §1
# [38] = target: Neu5Ac(a2-3)Gal(b1-4)[Fuc(a1-3)]GlcNAc(b1-3)Gal
# Outline: as §1
# [39] = target: Neu5Ac(a2-3)Gal(b1-4)[Fuc(a1-3)]GlcNAc(b1-3)Gal(b1-4)GlcNAc
# Outline: as §1
# [40] = target: Neu5Ac(a2-3)Gal(b1-4)[Fuc(a1-3)]GlcNAc(b1-3)Gal(b1-4)[Fuc(a1-3)]GlcNAc(b1-3)Gal(b1-4)[Fuc(a1-3)]GlcNAc
# Outline: as §1
# [41] = target: Neu5Ac(a2-3)Gal(b1-4)[Fuc(a1-3)]GlcNAc(b1-3)GalNAc
# Outline: as §1
# [42] = target: Neu5Ac(a2-3)Gal(b1-4)[Fuc(a1-3)]GlcNAc(b1-6)[Gal(b1-3)]GalNAc
# Outline: as §1
# [43] = target: Neu5Ac(a2-3)Gal(b1-4)[Fuc(a1-3)]GlcNAc(b1-6)[Neu5Ac(a2-3)Gal(b1-3)]GalNAc
# Outline: as §1
# [44] = target: Neu5Ac(a2-3)Gal(b1-4)[Fuc(a1-3)]GlcNAc6S
# Outline: as §1
# [45] = target: Neu5Ac(a2-3)Gal6S(b1-4)GlcNAc
# Outline: as §1
binder,measurement,setting,value
B1,glycan array binding signal (z-score),[1],-0.381
same,glycan array binding signal (z-score),[2],-0.384
same,glycan array binding signal (z-score),[3],-0.388
same,glycan array binding signal (z-score),[4],-0.384
same,glycan array binding signal (z-score),[5],-0.386
same,glycan array binding signal (z-score),[6],-0.392
same,glycan array binding signal (z-score),[7],-0.381
same,glycan array binding signal (z-score),[8],-0.389
same,glycan array binding signal (z-score),[9],-0.388
same,glycan array binding signal (z-score),[10],-0.388
same,glycan array binding signal (z-score),[11],-0.391
same,glycan array binding signal (z-score),[12],-0.392
same,glycan array binding signal (z-score),[13],-0.39
same,glycan array binding signal (z-score),[14],-0.383
same,glycan array binding signal (z-score),[15],-0.388
same,glycan array binding signal (z-score),[16],2.29
same,glycan array binding signal (z-score),[17],2.27
same,glycan array binding signal (z-score),[18],-0.375
same,glycan array binding signal (z-score),[19],-0.391
same,glycan array binding signal (z-score),[20],-0.391
same,glycan array binding signal (z-score),[21],-0.383
same,glycan array binding signal (z-score),[22],-0.389
same,glycan array binding signal (z-score),[23],-0.389
same,glycan array binding signal (z-score),[24],-0.389
same,glycan array binding signal (z-score),[25],-0.383
same,glycan array binding signal (z-score),[26],-0.375
same,glycan array binding signal (z-score),[27],1.19
same,glycan array binding signal (z-score),[28],-0.254
same,glycan array binding signal (z-score),[29],0.01
same,glycan array binding signal (z-score),[30],0.063
same,glycan array binding signal (z-score),[31],3.82
same,glycan array binding signal (z-score),[32],-0.392
same,glycan array binding signal (z-score),[33],-0.386
same,glycan array binding signal (z-score),[34],-0.393
same,glycan array binding signal (z-score),[35],-0.385
same,glycan array binding signal (z-score),[36],-0.273
same,glycan array binding signal (z-score),[37],-0.39
same,glycan array binding signal (z-score),[38],-0.393
same,glycan array binding signal (z-score),[39],-0.385
same,glycan array binding signal (z-score),[40],-0.392
same,glycan array binding signal (z-score),[41],-0.364
same,glycan array binding signal (z-score),[42],-0.389
same,glycan array binding signal (z-score),[43],-0.374
same,glycan array binding signal (z-score),[44],-0.393
same,glycan array binding signal (z-score),[45],-0.387
